Source: the supplement of paper PMC11417369
The other results are listed elsewhere or left out.

test system: PfSIP2 AP2 domain 1 (GST-tagged); assay: gcPBM binding intensity (ln(normalized median fluorescence intensity)); higher = stronger DNA binding
Method in brief: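 Probes on an Agilent 4 × 180k array were primer-extended, double-stranded and 36 bp long, taken from intergenic genomic regions, with negative controls added. GST-tagged P. falciparum DNA-binding domains from E. coli, about 25 μg on average, were applied to the array for 1 h in 1× PBS containing 1% milk, 0.2 mg/ml BSA, 0.5% salmon testes DNA and 0.03% Triton X-100. Binding intensity, obtained after Alexa488 anti-GST antibody detection and a 488 nm scan, is the highest Masliner-normalised natural-log median intensity across replicate spots of either probe orientation.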

Sequence	gcPBM binding intensity (ln)
TACATACATACATACACACATACATATATATATATA [CACACA_site1387]	9.5
TCTTTTATTAGTAAAAGTACTTATATAAATATTATA [XGTACX_site5099]	6.98
ATAATATAATAAACGTGTACACAATTAAATTATTAT [XGTACX_site3491]	7.36
AATACTCTATTTTATAGTACATATATTATTAATCAC [XGTACX_site6622]	6.96
GAAAAAAAAAAAAATACACACAAATTGGTATATAAT [CACACA_site4369]	6.72
TATCAAATCCAAAGGGGTACATTTTGTTGTCCTAAT [XGTACX_site5575]	7.2
TAGCTCGTTCGGAGCACACACATATAAATAAATATA [CACACA_site7002]	6.83
ATAGACAGCGCACAAACACACAAACACGCACGCACA [CACACA_site6349]	8.7
TAGGGATTATACCACACACACATACCCATAAATATA [CACACA_site5719]	6.9
TATTTACATGTAAAAGGTACACACATTATATATACA [XGTACX_site2157]	7.1
TAAAATAAAACAAACACACACACACCCCCACAAAAA [CACACA_site3850]	8.65
TTTATTATTTTTTGTAGTACTTTATATAAAAGTTCT [XGTACX_site4494]	7.25
ATACACTTTTATATATCAATACATTATGTATTAAGT [CACACA_negctrl_site421]	7.14
CCTCTTTATTTTAATTGTACATTTTTGTAGGTTTTT [XGTACX_site7130]	7.33
AAAACAAACCCATTTACACACATAAATAAATCAATT [CACACA_site6126]	7
ATGTATATATATATATGTACTAATTAGTAATTTACG [XGTACX_site6276]	7.27
TCCTTTTTTTTGTAATGTACTTAGTTTGGTTATATG [XGTACX_site8208]	7.14
TTTTTATTACTTCTCTGTACTCAGGAAAATAAATAT [XGTACX_site2092]	6.94
TGAATGTAAGAAAATACACACTAGTATAGTAACACC [CACACA_site5131]	7.38
TTGATTATAATTAGTACACACAAAATACATGCGGGG [CACACA_site2277]	7.82
AAATATATAATACATATGTAATATGCATATATATAT [GTGCAC_negctrl_site450]	8.82
AAGCATATTATAAACACACACTGTATAAAGATATAT [CACACA_site6277]	6.86

Sequence	gcPBM binding intensity (ln)
AAGTATAACCTTTATAATAATGACATGACCGATTTT [CACACA_negctrl_site395]	6.83
ATATAACGAATAATTACACACTATAAAAAAAGATCT [CACACA_site2862]	6.9
TATAACCGAATGTGTACACAAAATAATGTTATATAT [CACACA_site5627]	7.21
ATAATACGAATTTGTAGTACATTTATAATAACATGA [XGTACX_site2614]	7.02
TAAAAAACTTCGTGTTCACACATGTACTATATTATT [CACACA_site4796]	7.12
ACCCATAAGATAATTACACACAATACATCCCTATAT [CACACA_site5262]	7.24
TTTTTTTTTTTTTGTTGTACATTAAATATATTATTA [XGTACX_site7254]	7.15
TTTTAATAACCAATCCGTACATATAATCTTTATATT [XGTACX_site536]	6.92
TGGAAAAATAGGCACACACACATATATACATATATA [CACACA_site1297]	6.97
TAAAAGTTATAAGAGTGTACGTATATTTATATATCA [XGTACX_site2972]	7.19
TTATTATATTCTCCTTCACACACAAAAATATTTCAT [CACACA_site8738]	7.25
AGGACTAATATTTGAACACACATATAACATATACAT [CACACA_site7803]	7.03
CTTTTAAATTATTTTTGTACATAATTATATATATAT [XGTACX_site4128]	8.44
AACTATAAATATAAATGTACACATATGTAATATATA [XGTACX_site6085]	6.97
AAAAGGAAAATTTTCTTAGTAACTGCATTAAGAGAT [GTGCAC_negctrl_site675]	7.04
TACTGTTTAAAATATAAACACACATTGTTTGCTTTA [CACACA_site8358]	6.98
ATATGATGTAAAAGCACACATATATATATATATATA [CACACA_site4018]	9.59
TACTATAAAATGGAATGTACACATAAATATATCTAA [XGTACX_site6137]	7.1
GTTTATAACTATGTGTGTACACATTAATCGTTTTTC [XGTACX_site4364]	7
CACATACACATACACATACACACGCATAGAAACATA [CACACA_site2136]	7.43
TTGTATAAATATGTATGTATATAATATATGTAAAGA [TGCATGCA_negctrl_site93]	7.05
AAATCGTGTACATTGACACACATAATTTTTTTTATA [CACACA_site2463]	7.13

Sequence	gcPBM binding intensity (ln)
AATATATTTATATAGTGTACATTTTTTATATATGTA [XGTACX_site8142]	7.11
TATTAATTTTTATTATGTACATAAATAATTTATATT [XGTACX_site5456]	6.96
GGATAGATCATTTACACACACAAAAAAAAAAAAAAA [CACACA_site2139]	7.05
ATAATATATTATTATAGTACTTTATTTTATTTTATG [XGTACX_site2387]	6.97
AATATATATATACATACATGCATACATATATATATA [TGCATGCA_site784]	9.25
TAAGGAAAAAGAAAAAGTACATTATATAATAAATAG [XGTACX_site3282]	7
CAAATATATGTTTTCACACACAAAAGAAATGAAACC [CACACA_site2162]	6.78
AAAAAAAATAAAATGAATAAATAAGAATTACATATT [CACACA_negctrl_site863]	6.74
AAAAAGAAGATATATACACACCAAAAAAAAAAAAAA [CACACA_site7471]	6.74
ATTTCATATACAAATTGTACATACAATTTTATGTTT [XGTACX_site3240]	7.1
TTAAAAATAATATTATGTACTAAGAATAAATATATA [XGTACX_site3100]	6.88
TGTTAAAATAAAATCTATTACATTTTTATGGTTATA [XGTACX_negctrl_site525]	6.57
TCTTGTAAATATATGTGTATATTATATTTTATTATA [TGCATGCA_negctrl_site117]	6.88
CTTAATATTCTTTAAAGTACACAAAATAAGAATATA [XGTACX_site5489]	6.99
TGCAAGGAAAAACACACACACACATAAATGTATATA [CACACA_site751]	7.13
AAAAAACACGCACATACACACAAAAATGTTATAAAT [CACACA_site6188]	7.07
TTATATTTTTTAATTACACACAATTTTTATAAATAT [CACACA_site4148]	6.96
ATCTCATAAAACCGCACACACATAAAATTTGCATTA [CACACA_site3891]	7.55
CTAGTAAAAAATGCAAGTACATACATTATAAGTATA [XGTACX_site3908]	6.92
ATATTGGAGCACAACACACACAAGTATAAATATGGA [CACACA_site6834]	7.32
AAAGAGAACAGAAGTACACACATGTTCTTTTAGTAA [CACACA_site5557]	6.57
ATATTCTGCTGTTTAGTGCAATTATGAAATTATGAT	7.9

Sequence	gcPBM binding intensity (ln)
TAAAAAATAAAAATTGCACACTAAAAAATTACCCAC [CACACA_site5823]	7.78
TTGATTTTTATTTTTAAAATAAATAAATTTCAAATG [TGCATGCA_negctrl_site199]	6.99
TTTTTTTTTCTTTGGTGTACAATGTAATAGAAAATA [XGTACX_site227]	7.46
AAAAAAAACAAACACACACACAAATATTTATATATT [CACACA_site436]	6.95
TAAAAAGAAATGTAAAGTACAAATTTGAATAACATG [XGTACX_site7981]	7.08
ATATGTATTTATATATGTTTGATTTTTTTTTTTTTT [TGCATGCA_negctrl_site506]	7.01
AGGAAAAAAGAAAAAACACACATAAATATATATATA [CACACA_site3085]	9.02
CATACAGACATACATACACACATACCTATAAATATA [CACACA_site6995]	7.22
AAATGAAATAAAATCATATATTTATAATTATTATAA [TGCATGCA_negctrl_site612]	6.81
TAGCTCGTTCGGAGCACACACATATATATATATATA [CACACA_site1948]	9.79
ATATGTATGTATGTATGTACTTATTTATTTATTAAT [XGTACX_site8018]	7.08
TACATAAATTAAAACACACACACACTAATAAAAAAA [CACACA_site8712]	7.13
GTTTTATTTTGTTTCTATTTGACACATGTGATTATT [CACACA_negctrl_site1246]	7.35
ATTCAATATATATACACACACACTTTTAATAATTAA [CACACA_site3770]	7.09
AAAAAATTATATAAATGTACATTTTGGCTAGACATG [XGTACX_site5977]	6.92
TTTTTTTTTGAATATTGTACATATATATTACTTTTA [XGTACX_site5520]	6.8
CATATATATAATTATTCACACAATAGTTAAAAGTAT [CACACA_site5302]	6.9
ATTAAGACACATTGCACACGTGCACCCATAGAAAAA [CACACA_site408]	12.2
GACCATATGAATAATGCACACGTTTTAAAATATTAA [CACACA_site5312]	7.48
TATTTATTATTAAGATGTACATAAAACACTGAATAA [XGTACX_site4246]	6.91
TGAAAAAGGAAAAAAAAAAAAAAAAAAAAAACGAAA [GTGCAC_negctrl_site555]	6.75
TTTTAATTAAGACACACACACACATATAAATATGTA [CACACA_site7144]	7.03
